This is one part of the list.
Tested on: HSkMC (human skeletal muscle cells)
Experiment: cytotoxicity call (relative viability < 0.9)
Conditions: 10 µM

| Compound | cytotoxicity call |
| --- | --- |
| C/C=C/C[C@@H](C)[C@@H](O)[C@H]1C(=O)N[C@@H](CC)C(=O)N(C)CC(=O)N(C)[C@@H]([C@@H](C)CC)C(=O)N[C@@H](C(C)C)C(=O)N(C)[C@@H](CC(C)C)C(=O)N[C@@H](C)C(=O)N[C@H](C)C(=O)N(C)[C@@H](CC(C)C)C(=O)N(C)[C@@H](CC(C)C)C(=O)N(C)[C@@H](C(C)C)C(=O)N1C | inactive |
| CC(=O)N1[C@@H]2c3cccc(=O)n3C[C@H]1[C@H](CO)[C@H]2C(=O)N1CCc2ccccc2C1 | inactive |
| COCC#Cc1ccc([C@@H]2[C@@H](CO)N3C(=O)CN(C(=O)C4CCOCC4)C[C@H]23)cc1 | inactive |
| C[C@@H]1CN([C@@H](C)CO)C(=O)Cc2cc(NS(=O)(=O)c3ccccc3)ccc2O[C@H]1CN(C)Cc1ccc(-c2ccccc2)cc1 | inactive |
| Nc1ccccc1C(=O)N1CCOCC1 | inactive |
| Cc1ccc(N2CC[C@@H](CN)C2)cc1 | inactive |
| COc1ccc(S(=O)(=O)N(C)C[C@H]2OCCCC[C@H](C)Oc3ccc(NC(=O)C4CCCCC4)cc3C(=O)N([C@@H](C)CO)C[C@@H]2C)cc1 | inactive |
| C[C@@H]1CCCCO[C@H](CN(C)Cc2ccccc2)[C@H](C)CN([C@@H](C)CO)C(=O)c2cc(NC(=O)CCC(F)(F)F)ccc2O1 | inactive |
| C[C@H]1CN([C@@H](C)CO)C(=O)CCCn2cc(nn2)CO[C@@H]1CN(C)C(=O)Nc1cccc(Oc2ccccn2)c1 | inactive |
| CO[C@H]1CN(C)C(=O)c2ccc(NC(=O)CC(F)(F)F)cc2OC[C@H](C)N(S(=O)(=O)c2cn(C)cn2)C[C@H]1C | inactive |

Reference: the antibiotic and cytotoxicity screens of Wong et al. (2023)
